Results as given in the supplement of paper PMC8728848.
The other results are listed elsewhere or left out.

Columns and labels:
Experiment in all cases: glycan array binding signal (z-score within array); higher = stronger binding
Conditions in all cases: glycan notation: IUPAC condensed, linker removed
[1] = target: Gal(b1-4)GlcNAc(b1-2)[Gal(b1-4)GlcNAc(b1-6)]Man(a1-6)[GlcNAc(b1-4)][Gal(b1-4)GlcNAc(b1-2)Man(a1-3)]Man(b1-4)GlcNAc(b1-4)GlcNAc
In short: (§1)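 Arrays were curated from the Consortium for Functional Glycomics database, 3228 in total, and kept only where the protein sequence was available. Binding is expressed as a within-array Z-score. This score was averaged across arrays of the same protein sequence at different concentrations or buffers and across linkers, and negative values can be read as non-binding.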

[2] = target: Gal(b1-4)GlcNAc(b1-2)[Gal(b1-4)GlcNAc(b1-6)]Man(a1-6)[GlcNAc(b1-4)][Gal(b1-4)GlcNAc(b1-2)[Gal(b1-4)GlcNAc(b1-4)]Man(a1-3)]Man(b1-4)GlcNAc(b1-4)[Fuc(a1-6)]GlcNAc
In short: as §1

[3] = target: Gal(b1-4)GlcNAc(b1-3)Gal(b1-3)GalNAc
In short: as §1

[4] = target: Gal(b1-4)GlcNAc(b1-3)Gal(b1-3)GlcNAc
In short: as §1

[5] = target: Gal(b1-4)GlcNAc(b1-3)Gal(b1-4)Glc
In short: as §1

[6] = target: Gal(b1-4)GlcNAc(b1-3)Gal(b1-4)GlcNAc
In short: as §1

[7] = target: Gal(b1-4)GlcNAc(b1-3)Gal(b1-4)GlcNAc(b1-2)Man(a1-3)[Gal(b1-4)GlcNAc(b1-3)Gal(b1-4)GlcNAc(b1-2)Man(a1-6)]Man(b1-4)GlcNAc(b1-4)GlcNAc
In short: as §1

[8] = target: Gal(b1-4)GlcNAc(b1-3)Gal(b1-4)GlcNAc(b1-2)Man(a1-3)[Gal(b1-4)GlcNAc(b1-3)Gal(b1-4)GlcNAc(b1-2)Man(a1-6)]Man(b1-4)GlcNAc(b1-4)[Fuc(a1-6)]GlcNAc
In short: as §1

[9] = target: Gal(b1-4)GlcNAc(b1-3)Gal(b1-4)GlcNAc(b1-2)[Gal(b1-4)GlcNAc(b1-3)Gal(b1-4)GlcNAc(b1-6)]Man(a1-6)[Gal(b1-4)GlcNAc(b1-3)Gal(b1-4)GlcNAc(b1-2)Man(a1-3)]Man(b1-4)GlcNAc(b1-4)GlcNAc
In short: as §1

[10] = target: Gal(b1-4)GlcNAc(b1-3)Gal(b1-4)GlcNAc(b1-2)[Gal(b1-4)GlcNAc(b1-3)Gal(b1-4)GlcNAc(b1-6)]Man(a1-6)[Gal(b1-4)GlcNAc(b1-3)Gal(b1-4)GlcNAc(b1-2)Man(a1-3)]Man(b1-4)GlcNAc(b1-4)[Fuc(a1-6)]GlcNAc
In short: as §1

[11] = target: Gal(b1-4)GlcNAc(b1-3)Gal(b1-4)GlcNAc(b1-3)Gal(b1-4)GlcNAc
In short: as §1

[12] = target: Gal(b1-4)GlcNAc(b1-3)Gal(b1-4)GlcNAc(b1-3)Gal(b1-4)GlcNAc(b1-2)Man(a1-3)[Gal(b1-4)GlcNAc(b1-3)Gal(b1-4)GlcNAc(b1-3)Gal(b1-4)GlcNAc(b1-2)Man(a1-6)]Man(b1-4)GlcNAc(b1-4)GlcNAc
In short: as §1

[13] = target: Gal(b1-4)GlcNAc(b1-3)Gal(b1-4)GlcNAc(b1-3)Gal(b1-4)GlcNAc(b1-2)Man(a1-3)[Gal(b1-4)GlcNAc(b1-3)Gal(b1-4)GlcNAc(b1-3)Gal(b1-4)GlcNAc(b1-2)Man(a1-6)]Man(b1-4)GlcNAc(b1-4)[Fuc(a1-6)]GlcNAc
In short: as §1

[14] = target: Gal(b1-4)GlcNAc(b1-3)Gal(b1-4)GlcNAc(b1-3)Gal(b1-4)GlcNAc(b1-2)[Gal(b1-4)GlcNAc(b1-3)Gal(b1-4)GlcNAc(b1-3)Gal(b1-4)GlcNAc(b1-6)]Man(a1-6)[Gal(b1-4)GlcNAc(b1-3)Gal(b1-4)GlcNAc(b1-3)Gal(b1-4)GlcNAc(b1-2)Man(a1-3)]Man(b1-4)GlcNAc(b1-4)[Fuc(a1-6)]GlcNAc
In short: as §1

[15] = target: Gal(b1-4)GlcNAc(b1-3)Gal(b1-4)GlcNAc(b1-3)Gal(b1-4)GlcNAc(b1-3)Gal(b1-4)GlcNAc(b1-2)Man(a1-3)[Gal(b1-4)GlcNAc(b1-3)Gal(b1-4)GlcNAc(b1-3)Gal(b1-4)GlcNAc(b1-3)Gal(b1-4)GlcNAc(b1-2)Man(a1-6)]Man(b1-4)GlcNAc(b1-4)GlcNAc
In short: as §1

[16] = target: Gal(b1-4)GlcNAc(b1-3)Gal(b1-4)GlcNAc(b1-3)Gal(b1-4)GlcNAc(b1-3)Gal(b1-4)GlcNAc(b1-2)Man(a1-3)[Gal(b1-4)GlcNAc(b1-3)Gal(b1-4)GlcNAc(b1-3)Gal(b1-4)GlcNAc(b1-3)Gal(b1-4)GlcNAc(b1-2)Man(a1-6)]Man(b1-4)GlcNAc(b1-4)[Fuc(a1-6)]GlcNAc
In short: as §1

[17] = target: Gal(b1-4)GlcNAc(b1-3)Gal(b1-4)GlcNAc(b1-3)Gal(b1-4)GlcNAc(b1-3)Gal(b1-4)GlcNAc(b1-2)[Gal(b1-4)GlcNAc(b1-3)Gal(b1-4)GlcNAc(b1-3)Gal(b1-4)GlcNAc(b1-3)Gal(b1-4)GlcNAc(b1-6)]Man(a1-6)[Gal(b1-4)GlcNAc(b1-3)Gal(b1-4)GlcNAc(b1-3)Gal(b1-4)GlcNAc(b1-3)Gal(b1-4)GlcNAc(b1-2)Man(a1-3)]Man(b1-4)GlcNAc(b1-4)[Fuc(a1-6)]GlcNAc
In short: as §1

[18] = target: Gal(b1-4)GlcNAc(b1-3)Gal(b1-4)GlcNAc(b1-3)Gal(b1-4)GlcNAc(b1-3)Gal(b1-4)GlcNAc(b1-3)Gal(b1-4)GlcNAc(b1-2)Man(a1-3)[Gal(b1-4)GlcNAc(b1-3)Gal(b1-4)GlcNAc(b1-3)Gal(b1-4)GlcNAc(b1-3)Gal(b1-4)GlcNAc(b1-3)Gal(b1-4)GlcNAc(b1-2)Man(a1-6)]Man(b1-4)GlcNAc(b1-4)GlcNAc
In short: as §1

[19] = target: Gal(b1-4)GlcNAc(b1-3)Gal(b1-4)GlcNAc(b1-3)Gal(b1-4)GlcNAc(b1-3)Gal(b1-4)GlcNAc(b1-3)Gal(b1-4)GlcNAc(b1-2)Man(a1-3)[Gal(b1-4)GlcNAc(b1-3)Gal(b1-4)GlcNAc(b1-3)Gal(b1-4)GlcNAc(b1-3)Gal(b1-4)GlcNAc(b1-3)Gal(b1-4)GlcNAc(b1-2)Man(a1-6)]Man(b1-4)GlcNAc(b1-4)[Fuc(a1-6)]GlcNAc
In short: as §1

[20] = target: Gal(b1-4)GlcNAc(b1-3)Gal(b1-4)GlcNAc(b1-3)Gal(b1-4)GlcNAc(b1-3)Gal(b1-4)GlcNAc(b1-3)Gal(b1-4)GlcNAc(b1-2)[Gal(b1-4)GlcNAc(b1-3)Gal(b1-4)GlcNAc(b1-3)Gal(b1-4)GlcNAc(b1-3)Gal(b1-4)GlcNAc(b1-3)Gal(b1-4)GlcNAc(b1-6)]Man(a1-6)[Gal(b1-4)GlcNAc(b1-3)Gal(b1-4)GlcNAc(b1-3)Gal(b1-4)GlcNAc(b1-3)Gal(b1-4)GlcNAc(b1-3)Gal(b1-4)GlcNAc(b1-2)Man(a1-3)]Man(b1-4)GlcNAc(b1-4)[Fuc(a1-6)]GlcNAc
In short: as §1

[21] = target: Gal(b1-4)GlcNAc(b1-3)Gal(b1-4)GlcNAc(b1-3)Gal(b1-4)GlcNAc(b1-3)Gal(b1-4)GlcNAc(b1-3)Gal(b1-4)GlcNAc(b1-3)Gal(b1-4)GlcNAc(b1-2)Man(a1-3)[Gal(b1-4)GlcNAc(b1-3)Gal(b1-4)GlcNAc(b1-3)Gal(b1-4)GlcNAc(b1-3)Gal(b1-4)GlcNAc(b1-3)Gal(b1-4)GlcNAc(b1-3)Gal(b1-4)GlcNAc(b1-2)Man(a1-6)]Man(b1-4)GlcNAc(b1-4)GlcNAc
In short: as §1

[22] = target: Gal(b1-4)GlcNAc(b1-3)Gal(b1-4)GlcNAc(b1-3)GalNAc
In short: as §1

[23] = target: Gal(b1-4)GlcNAc(b1-3)Gal(b1-4)GlcNAc(b1-3)[Gal(b1-4)GlcNAc(b1-3)Gal(b1-4)GlcNAc(b1-6)]GalNAc
In short: as §1

B1: PfulAvr4 2 (Pseudocercospora fuligena) (protein)
chain: HHHHHHDYKDDDDKAKPIKPFACPPKDFTTTKCQGPVDCLYANPLSCLGYIQCVCDDDACSTATPYAKSCPTGLAWVEKLKRCDGIKKSACPKKMYEGS
What does the source list for B1?
glycan array binding signal (z-score) [1]: -0.393; glycan array binding signal (z-score) [2]: -0.27; glycan array binding signal (z-score) [3]: -0.334; glycan array binding signal (z-score) [4]: -0.464; glycan array binding signal (z-score) [5]: -0.288; glycan array binding signal (z-score) [6]: -0.277; glycan array binding signal (z-score) [7]: 0.587; glycan array binding signal (z-score) [8]: -0.268; glycan array binding signal (z-score) [9]: 4.76; glycan array binding signal (z-score) [10]: -0.241; glycan array binding signal (z-score) [11]: -0.401; glycan array binding signal (z-score) [12]: 0.129; glycan array binding signal (z-score) [13]: -0.158; glycan array binding signal (z-score) [14]: -0.331; glycan array binding signal (z-score) [15]: -0.08; glycan array binding signal (z-score) [16]: -0.233; glycan array binding signal (z-score) [17]: -0.332; glycan array binding signal (z-score) [18]: 0.011; glycan array binding signal (z-score) [19]: -0.044; glycan array binding signal (z-score) [20]: -0.223; glycan array binding signal (z-score) [21]: -0.29; glycan array binding signal (z-score) [22]: 0.111; glycan array binding signal (z-score) [23]: 0.716
